Laboratory results as given in paper PMC6753473.
Results are given in words; binding and its absence hold for the method and conditions named. For part of these data: Binding seen in cells or lysates may run through a third protein. Some binding calls cover weakened binding; strength is not graded here. For part of these data: Where a sequence is shown, tags or fusion partners need not be part of it.

Experiments:
GFP-tagged CAF1 = GFP-tagged CAF1 (UniProt Q9UIV1); test: co-IP; GFP-CAF1 or GFP-CAF1* expressed in HEK293T cells, immunoprecipitated with anti-GFP antibody; precipitates incubated on ice with 12 μM purified MBP or MBP-tagged CIR for 10 min, washed, western blot of endogenous CCR4–NOT subunits
[1] = biological target: T1, GFP-PatL1 (full length) (human) (UniProt Q86TB9); test: co-IP; GFP-tagged bait expressed in HEK293T cells, immunoprecipitated with anti-GFP antibodies; endogenous partners detected by western blot; NET buffer (50 mM Tris/HCl pH 7.5, 150 mM NaCl, 1 mM EDTA, 0.1% Triton-X-100, 10% glycerol); RNase A added
T1 sequence: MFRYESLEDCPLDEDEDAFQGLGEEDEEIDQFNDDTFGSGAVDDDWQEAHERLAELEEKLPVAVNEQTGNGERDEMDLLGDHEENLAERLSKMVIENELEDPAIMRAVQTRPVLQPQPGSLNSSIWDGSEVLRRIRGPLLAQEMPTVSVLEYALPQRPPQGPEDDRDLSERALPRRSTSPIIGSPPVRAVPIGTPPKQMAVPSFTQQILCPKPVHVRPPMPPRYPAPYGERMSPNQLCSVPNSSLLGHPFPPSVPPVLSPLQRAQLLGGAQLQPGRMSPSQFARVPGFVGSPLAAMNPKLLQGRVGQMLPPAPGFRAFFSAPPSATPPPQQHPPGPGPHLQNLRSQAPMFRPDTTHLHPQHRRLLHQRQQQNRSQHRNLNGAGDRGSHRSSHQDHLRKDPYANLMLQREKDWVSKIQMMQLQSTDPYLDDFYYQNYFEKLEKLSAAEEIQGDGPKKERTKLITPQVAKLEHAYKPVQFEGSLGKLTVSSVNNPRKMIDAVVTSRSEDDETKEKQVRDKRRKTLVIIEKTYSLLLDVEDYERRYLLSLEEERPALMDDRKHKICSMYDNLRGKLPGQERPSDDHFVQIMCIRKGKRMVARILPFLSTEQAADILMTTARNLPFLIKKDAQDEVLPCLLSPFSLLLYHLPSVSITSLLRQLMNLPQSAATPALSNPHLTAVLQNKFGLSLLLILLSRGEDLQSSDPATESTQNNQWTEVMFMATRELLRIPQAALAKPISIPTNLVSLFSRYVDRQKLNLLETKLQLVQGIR

[2] = biological target: T2, GFP-PatL1 ΔC (lacks residues 517-770) (human) (UniProt Q86TB9); test: as above
T2 sequence: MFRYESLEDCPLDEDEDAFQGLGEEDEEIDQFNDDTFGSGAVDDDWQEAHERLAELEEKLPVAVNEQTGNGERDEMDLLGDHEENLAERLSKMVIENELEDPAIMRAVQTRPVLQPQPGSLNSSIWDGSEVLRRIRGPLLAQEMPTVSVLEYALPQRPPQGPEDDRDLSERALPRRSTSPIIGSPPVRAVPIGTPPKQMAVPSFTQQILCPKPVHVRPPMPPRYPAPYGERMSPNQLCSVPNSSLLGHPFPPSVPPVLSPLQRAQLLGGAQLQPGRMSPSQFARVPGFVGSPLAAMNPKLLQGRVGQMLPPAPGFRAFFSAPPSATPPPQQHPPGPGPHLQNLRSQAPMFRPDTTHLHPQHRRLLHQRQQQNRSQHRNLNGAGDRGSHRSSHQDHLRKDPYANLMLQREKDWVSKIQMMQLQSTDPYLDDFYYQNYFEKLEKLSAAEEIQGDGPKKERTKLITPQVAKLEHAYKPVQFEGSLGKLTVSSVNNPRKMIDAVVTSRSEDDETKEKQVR

[3] = biological target: T3, GFP-tagged XRN1 C-terminal interacting region (residues 1174-1649) (human) (UniProt Q8IZH2); test: co-IP; GFP-tagged and HA-tagged proteins co-expressed in HEK293T cells, immunoprecipitated with anti-GFP antibodies, western blot; NET buffer; RNase A added
T3 sequence: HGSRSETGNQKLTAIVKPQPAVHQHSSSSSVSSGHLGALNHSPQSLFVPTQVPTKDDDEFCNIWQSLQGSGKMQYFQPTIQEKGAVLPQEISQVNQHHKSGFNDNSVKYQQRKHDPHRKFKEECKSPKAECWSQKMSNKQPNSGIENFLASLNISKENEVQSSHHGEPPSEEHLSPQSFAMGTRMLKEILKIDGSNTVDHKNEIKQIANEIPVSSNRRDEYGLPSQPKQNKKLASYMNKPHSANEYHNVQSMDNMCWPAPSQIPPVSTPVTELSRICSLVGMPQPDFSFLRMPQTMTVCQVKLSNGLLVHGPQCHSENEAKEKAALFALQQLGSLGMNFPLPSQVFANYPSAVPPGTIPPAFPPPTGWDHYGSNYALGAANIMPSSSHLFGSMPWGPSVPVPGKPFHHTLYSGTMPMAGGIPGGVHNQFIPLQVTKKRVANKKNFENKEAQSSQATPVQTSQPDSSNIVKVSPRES

[4] = biological target: GFP-tagged XRN1 (full length) (human) (UniProt Q8IZH2); test: as above
[5] = biological target: T4, MBP- and Strep-tagged recombinant human XRN1 CIR (human) (UniProt Q8IZH2); test: pull-down; MBP/Strep-tagged bait (from cleared E. coli lysate, or 30 μg purified PNRC2) held on Strep-Tactin sepharose and washed; purified proteins added for 1 h at 4°C in 50 mM Tris/HCl pH 7.5, 150 mM NaCl; eluted with 2.5 mM biotin; SDS-PAGE, Coomassie; both purified
T4 sequence: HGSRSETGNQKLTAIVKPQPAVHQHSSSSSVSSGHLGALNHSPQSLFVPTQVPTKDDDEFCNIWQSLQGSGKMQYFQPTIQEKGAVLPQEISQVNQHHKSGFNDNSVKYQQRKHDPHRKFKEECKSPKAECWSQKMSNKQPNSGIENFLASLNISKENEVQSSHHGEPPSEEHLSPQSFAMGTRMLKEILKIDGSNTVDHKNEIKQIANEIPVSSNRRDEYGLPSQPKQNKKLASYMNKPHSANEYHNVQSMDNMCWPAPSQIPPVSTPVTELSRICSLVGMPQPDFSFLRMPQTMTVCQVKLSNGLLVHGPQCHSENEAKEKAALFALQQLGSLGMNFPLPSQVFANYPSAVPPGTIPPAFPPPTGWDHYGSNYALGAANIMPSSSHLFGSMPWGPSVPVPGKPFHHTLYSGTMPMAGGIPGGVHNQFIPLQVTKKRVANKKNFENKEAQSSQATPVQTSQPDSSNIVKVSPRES

[6] = biological target: GFP-tagged XRN1 (full length) (human) (UniProt Q8IZH2); test: co-IP; GFP-tagged bait expressed in HEK293T cells, immunoprecipitated with anti-GFP antibodies; endogenous partners detected by western blot; NET buffer (50 mM Tris/HCl pH 7.5, 150 mM NaCl, 1 mM EDTA, 0.1% Triton-X-100, 10% glycerol); RNase A added

For “endogenous CCR4a (from UniProt Q9ULM6 1-557) (enzyme)”, the binding (GFP-tagged CAF1) was “binds”.

In the case of “endogenous NOT1 (from UniProt A5YKK6 1-2376)”, the binding [1] is reported as “binds” and the binding [2] is reported as “binds”.

“endogenous NOT2 (from UniProt Q9NZN8 1-540)” was tested, and the binding (GFP-tagged CAF1) was “binds”.

With “endogenous NOT3 (from UniProt O75175 1-753)” the binding (GFP-tagged CAF1) was “binds”.

B1: HA-tagged PatL1 (protein, UniProt Q86TB9 1-770)
chain: MFRYESLEDCPLDEDEDAFQGLGEEDEEIDQFNDDTFGSGAVDDDWQEAHERLAELEEKLPVAVNEQTGNGERDEMDLLGDHEENLAERLSKMVIENELEDPAIMRAVQTRPVLQPQPGSLNSSIWDGSEVLRRIRGPLLAQEMPTVSVLEYALPQRPPQGPEDDRDLSERALPRRSTSPIIGSPPVRAVPIGTPPKQMAVPSFTQQILCPKPVHVRPPMPPRYPAPYGERMSPNQLCSVPNSSLLGHPFPPSVPPVLSPLQRAQLLGGAQLQPGRMSPSQFARVPGFVGSPLAAMNPKLLQGRVGQMLPPAPGFRAFFSAPPSATPPPQQHPPGPGPHLQNLRSQAPMFRPDTTHLHPQHRRLLHQRQQQNRSQHRNLNGAGDRGSHRSSHQDHLRKDPYANLMLQREKDWVSKIQMMQLQSTDPYLDDFYYQNYFEKLEKLSAAEEIQGDGPKKERTKLITPQVAKLEHAYKPVQFEGSLGKLTVSSVNNPRKMIDAVVTSRSEDDETKEKQVRDKRRKTLVIIEKTYSLLLDVEDYERRYLLSLEEERPALMDDRKHKICSMYDNLRGKLPGQERPSDDHFVQIMCIRKGKRMVARILPFLSTEQAADILMTTARNLPFLIKKDAQDEVLPCLLSPFSLLLYHLPSVSITSLLRQLMNLPQSAATPALSNPHLTAVLQNKFGLSLLLILLSRGEDLQSSDPATESTQNNQWTEVMFMATRELLRIPQAALAKPISIPTNLVSLFSRYVDRQKLNLLETKLQLVQGIR
In the case of B1, the binding [3] is reported as “binds” and the binding [4] is reported as “binds”.

B2: recombinant PatL1 C-terminal region (PatL1-C) (domain or fragment, UniProt Q86TB9 517-770)
chain: DKRRKTLVIIEKTYSLLLDVEDYERRYLLSLEEERPALMDDRKHKICSMYDNLRGKLPGQERPSDDHFVQIMCIRKGKRMVARILPFLSTEQAADILMTTARNLPFLIKKDAQDEVLPCLLSPFSLLLYHLPSVSITSLLRQLMNLPQSAATPALSNPHLTAVLQNKFGLSLLLILLSRGEDLQSSDPATESTQNNQWTEVMFMATRELLRIPQAALAKPISIPTNLVSLFSRYVDRQKLNLLETKLQLVQGIR
For B2, the binding [5] was “binds”.

B3: endogenous PAN2 (enzyme, UniProt Q504Q3 1-1202)
chain: MNFEGLDPGLAEYAPAMHSALDPVLDAHLNPSLLQNVELDPEGVALEALPVQESVHIMEGVYSELHSVVAEVGVPVSVSHFDLHEEMLWVGSHGGHATSFFGPALERYSSFQVNGSDDIRQIQSLENGILFLTKNNLKYMARGGLIIFDYLLDENEDMHSLLLTDSSTLLVGGLQNHIIEIDLNTVQETQKYAVETPGVTIMRQTNRFFFCGHTSGKVSLRDLRTFKVEHEFDAFSGSLSDFDVHGNLLAACGFSSRLTGLACDRFLKVYDLRMMRAITPLQVHVDPAFLRFIPTYTSRLAIISQSGQCQFCEPTGLANPADIFHVNPVGPLLMTFDVSASKQALAFGDSEGCVHLWTDSPEPSFNPYSRETEFALPCLVDSLPPLDWSQDLLPLSLIPVPLTTDTLLSDWPAANSAPAPRRAPPVDAEILRTMKKVGFIGYAPNPRTRLRNQIPYRLKESDSEFDSFSQVTESPVGREEEPHLHMVSKKYRKVTIKYSKLGLEDFDFKHYNKTLFAGLEPHIPNAYCNCMIQVLYFLEPVRCLIQNHLCQKEFCLACELGFLFHMLDLSRGDPCQGNNFLRAFRTIPEASALGLILADSDEASGKGNLARLIQRWNRFILTQLHQDMQELEIPQAYRGAGGSSFCSSGDSVIGQLFSCEMENCSLCRCGSETVRASSTLLFTLSYPDGSKSDKTGKNYDFAQVLKRSICLDQNTQAWCDTCEKYQPTIQTRNIRHLPDILVINCEVNSSKEADFWRMQAEVAFKMAVKKHGGEISKNKEFALADWKELGSPEGVLVCPSIEELKNVWLPFSIRMKMTKNKGLDVCNWTDGDEMQWGPARAEEEHGVYVYDLMATVVHILDSRTGGSLVAHIKVGETYHQRKEGVTHQQWYLFNDFLIEPIDKHEAVQFDMNWKVPAILYYVKRNLNSRYNLNIKNPIEASVLLAEASLARKQRKTHTTFIPLMLNEMPQIGDLVGLDAEFVTLNEEEAELRSDGTKSTIKPSQMSVARITCVRGQGPNEGIPFIDDYISTQEQVVDYLTQYSGIKPGDLDAKISSKHLTTLKSTYLKLRFLIDIGVKFVGHGLQKDFRVINLMVPKDQVLDTVYLFHMPRKRMISLRFLAWYFLDLKIQGETHDSIEDARTALQLYRKYLELSKNGTEPESFHKVLKGLYEKGRKMDWKVPEPEGQTSPKNAAVFSSVLAL
For B3, the binding [6] was “no binding”.
